Measurements as given in patent US20230405140A1, “ANTI-CD56 ANTIBODY-DRUG CONJUGATES AND THEIR USE IN THERAPY” (MCSAF INSIDE ONCOLOGY, priority 2020, published 2023).

Assays:
SK-BR-3 = test: Immunocytochemical fixation of antibody on tumor cells (peroxidase); type: binding; settings: m906 650 ng/mL, trastuzumab 40 ng/mL; CD56-negative HER2-positive control line
WaGa = test: as above; type: binding; settings: m906 650 ng/mL, trastuzumab 40 ng/mL; peroxidase secondary antibody
WaGa cells = test: Imaging flow cytometry, internalisation and lysosomal co-localization of m906-Alexa Fluor 750; type: cell-based; settings: for BDS score (LAMP1/m906): Bright Detail Similarity, lysosomal co-localization; for Intracellular fluorescence of m906 (MFI) / m906 fluorescence surface (MFI): m906-Alexa Fluor 750, WaGa; for Internalisation score for m906: positive score = internalized
Protocol: In order to confirm its internalisation into the tumor cells, the antibody m906 was conjugated with Alexa Fluor 750 using the “SAIVI Rapid Antibody Labeling Kit” (Thermoscientific) following the instructions provided by the manufacturer. The WaGa cells (500 000 cells) were incubated for 30 min at ambient temperature with the conjugate m906-Alexa Fluor 750 in a buffer solution (PBS 1X, 2% fetal calf serum, 0.1% sodium azide). The cells were then fixed with the aid of BD Cytofix/Cytoperm (BD Biosciences) and permeabilized with Permwash (BD Biosciences, diluted to 1/10e) in accordance with the instructions from the manufacturer. The nuclear and lysosomal compartments were labeled with Hoechst 33342 (BD Pharmigen, 1/10000) and an anti-LAMP1 antibody coupled to phycoerythrin-Cyanine 5 (BD Pharmigen, H4A3), respectively. The analysis of the labeled cells was carried out with the aid of an Amnis® ImageStream®X Mark II flow cytometry imager (Amnis Corp., part of EMD Millipore, Seattle, WA) equipped with 4 lasers (375 nm, 488 nm, 642 nm and 785 nm (SSC)). The images for the WaGa cells were captured with Inspire™ imaging flow cytometry software at a magnification of 60X and with an extended depth of field (EDF).
Compensations were made before each analysis. The cells of interest were identified using the “Gradient RMS” tool of the Bright Field image (BF: white light). Debris and cellular doublets were excluded from the analysis as a function of the aspect ratio with respect to the zone of the BF image. The surface area and the mean intensity of the intracellular fluorescence (IMF) of the m906 conjugated with Alexa Fluor 750 (channel 12) was evaluated for 2 different incubation times (5 and 30 min) with the aid of the “surface mask” and “cytoplasm mask” tools, using the IDEAS® v6.2 software. The internalisation score for the m906 conjugated with Alexa Fluor 750 (channel 12) was determined using the internalisation function, allowing the ratio of the intensity of intracellular fluorescence to the intensity of the whole cells to be defined. Cells with internalized antibodies have positive scores. The co-localization assistant using the “Bright Detail Similarity” (BDS) function was employed in order to quantify the level of co-localization between the anti-LAMP1 antibody conjugated with phycoerythrin-Cyanine 5 (channel 5) and the m906 conjugated with Alexa Fluor 750 (channel 12). The positive score for BDS (n. 1) indicates lysosomal localization for the m906.

primary NK cells = test: Killing effect on primary NK cells (Annexin V / 7-AAD flow cytometry); type: cell-based, human; settings: in words
Protocol: (§1) Primary natural killer cells (NK) and monocytes were obtained from blood of healthy adult volunteers at the Etablissement Français du Sang, according to institutional research protection guidelines agreement N° CA-REC-2019-188, Centre Val de Loire, France. Ficoll density centrifugation step (Eurobio) was performed to isolate peripheral blood mononuclear cells (PBMC).
NK cells were isolated from PBMC by negative selection (NK cell isolation kit human, Miltenyi Biotec) with purity higher than 95%. NK cells were cultured for up to 36 h in RPMI 1640 supplemented with 10% FCS, 1% penicillin and streptomycin, 1% L-glutamine and 100 UI/mL IL-2 at 37° C., 5% CO2 at 1.10^6 cells/mL.

neutrophils = test: Killing effect on neutrophils (Annexin V / 7-AAD flow cytometry); type: cell-based, human; settings: after 4 h of incubation; CD56 negative cells; at high concentration
Source text: The neutrophils were isolated directly from whole blood of healthy adult volunteers at the Etablissement Français du Sang, according to institutional research protection guidelines agreement N° CA-REC-2019-188, Centre Val de Loire, France, by negative selection, using the kit (MACSxpress® Whole Blood Neutrophil Isolation Kit, MiltenyBiotech™). The neutrophils were used directly following their isolation and then resuspended in HBSS buffer (1X) (Gibco 15266355), at 1×10^6 cells/mL.
(§2) 5% of CO2. […] All products were tested after 4 days treatment on NK cells and 4 h on monocytes and neutrophils.

PeTa = test: Immunocytochemical fixation of antibody on tumor cells (peroxidase); type: binding; settings: m906 650 ng/mL, trastuzumab 40 ng/mL; peroxidase secondary antibody
MS-1 = test: as above; type: binding; settings: m906 650 ng/mL, trastuzumab 40 ng/mL; peroxidase secondary antibody
[1] = system: MCC lines (WaGa, PeTa, MS-1, MKL-2)
Protocol: (§3) In order to evaluate cell viability, a cytotoxicity test using XTT was carried out. The cells were deposited in a 96-well plate (50 000 cells/well) in 7 replicates. […] The culture medium acted as a negative control. After 4 days of exposure to the drug, 25 μL of reagent XTT was added per well and the absorption was measured at 450 nm after 4 hours of incubation at 37° C. The absorption at 620 nm was used as a reference.

[2] = system: H69 small cell lung carcinoma cell line
Protocol: as §3

MKL-2 = test: Immunocytochemical fixation of antibody on tumor cells (peroxidase); type: binding; settings: m906 650 ng/mL, trastuzumab 40 ng/mL; peroxidase secondary antibody
[3] = system: CD56+ cell lines (WaGa, PeTa, MKL-1, H69, H209, H660); test: Flow cytometry binding of Alexa Fluor 750 labelled antibodies, CD56+ cell lines; settings: 4° C., 30 minutes, in words
Protocol: (§4) Binding levels of L and mAb-003 have been evaluated on several tumor cell lines: MCC (WaGa, PeTa, MKL-1), SCLC (H69, H209) and prostate cancers (H660) as well as WaGa, PeTa and MKL-1 CD56-knocked out using CRISPR technology.
(§5) The L and mAb-003 were labelled with Alexa Fluor 750 (Alexa Fluor 750 Protein Labelling Kit, Invitrogen) to allow their detection by flow cytometry. The labelled antibodies were incubated with 1.10^5 cells at 4° C. for 30 minutes, then cells were washed twice with PBS supplemented with 1% FCS, and the binding was analysed by Flow cytometry on Cytoflex.

[4] = system: CD56− cells (CRISPR WaGa, PeTa, MKL-1); test: Flow cytometry binding of Alexa Fluor 750 labelled antibodies, CD56- CRISPR cell lines; settings: 4° C., 30 minutes, in words
Protocol: as §4, §5

[5] = system: WaGa CD56 wild-type and WaGa CD56 knockout cells; settings: MIO-003 at 5 or 50 nM for 6 days; in words
MKL-1 CRISPR CD56 = test: XTT assay, ADC-mediated cytotoxicity; type: cell-based; settings: 4 days, CD56− cells, read-out: MKL-1 CRISPR CD56 n = 3 IC50
monocytes = test: Killing effect on monocytes (Annexin V / 7-AAD flow cytometry); type: cell-based, human; settings: after 4 h of incubation; in words
Protocol: as §1
Monocytes were isolated from PBMC by positive selection using anti-CD14 MicroBeads (Miltenyi Biotec) according to manufacturer recommendations. Monocytes were cultured in serum-free X-VIVO-15 medium (Lonza) at 1.10^6 cells/mL.
as §2

WaGa xenograft = test: Maximal tolerated dose evaluation on tumor bearing mice, single IV injection; type: in vivo, NOD/SCID mice; settings: 70 mg/kg, ethical end point
[6] = system: CD56− cells (CRISPR-MCC cell lines WaGa and MKL-1); test: XTT assay, summary over CD56- CRISPR-MCC cell lines; type: cell-based; settings: at high doses; in words
Protocol: To evaluate cell viability and cellular metabolic activity, XTT assays were performed according to standard protocols. WaGa, PeTa, H69, H209, H660 cell lines were plated in 3 replicates in a 96-well plate with 5.10^4 cells/well. […] Untreated cells were used as viability reference. Cells treated with 1% Triton X100 were used as cell death positive control. After 4 days, 25 μL XTT reagent at 1 mg/mL (Alfa Aesar, thermo Fisher) with N-methyl dibenzopyrazine methyl sulfate (PMS) activator (25 μM) was added per well and absorbance was measured at 450 nm after 4 h incubation. Absorbance at 620 nm was used as a reference. Three independent experiments have been performed.

B1: m906: human anti-CD56 antibody of type IgG1, light chain SEQ ID NO: 7, heavy chain SEQ ID NO: 8 (antibody)
heavy: EVQLVQSGAEVKKPGSSVKVSCKASGGTFTGYYMHWVRQAPGQGLEWMGWINPNSGGTNYAQKFQGRVTMTRDTSISTAYMELSRLRSDDTAVYYCARDLSSGYSGYFDYWGQGTLVTVSS[omitted - human IgG1 constant region]
light: DVVMTQSPLSLPVTPGEPASISCRSSQSLLHSNGYNFLDWYLQKPGQSPQLLIYLGSNRASGVPDRFSGSGSGTDFTLKISRVEADDVGVYYCMQSLQTPWTFGHGTKVEIKRTVAAPSVFIFPPSDEQLKSGTASVVCLLNNFYPREAKVQWKVDNALQSGNSQESVTEQDSKDSTYSLSSTLTLSKADYEKHKVYACEVTHQGLSSPVTKSFNRGEC
modifications: Chaine lourde du m906; Chaine l g re du m906
In the case of B1, the “Binding (fixation) to cell line SKBR3” value (SK-BR-3) is reported as “−”, the “Binding (fixation) to cell line WaGa” value (WaGa) is reported as “+” and the “Internalisation in WaGa cells expressing CD56” value (WaGa cells; in words) is reported as “internalized in the lysosome”. The “BDS score (LAMP1/m906)” value (WaGa cells; incubation period 5 minutes) was 1.4, the “Intracellular fluorescence of m906 (MFI)” value (WaGa cells; incubation period 5 minutes) was 50046 MFI and the “m906 fluorescence surface (MFI)” value (WaGa cells; incubation period 5 minutes) was 930 MFI. The “Internalisation score for m906” value (WaGa cells; incubation period 5 minutes) was 7.08, the “BDS score (LAMP1/m906)” value (WaGa cells; incubation period 30 minutes) was 1.4 and the “Intracellular fluorescence of m906 (MFI)” value (WaGa cells; incubation period 30 minutes) was 50464 MFI. For the same molecule, the “m906 fluorescence surface (MFI)” value (WaGa cells; incubation period 30 minutes) was 580 MFI, the “Internalisation score for m906” value (WaGa cells; incubation period 30 minutes) was 7.96 and the “Killing effect on primary NK cells (ADCC)” value (primary NK cells; after 4 h of incubation, listed as mAb-001) was “exerted a killing effect; also recorded: lower killing effect”. For the same molecule, the “Killing effect towards neutrophils” value (neutrophils) was “below 10%”, the “Binding (fixation) to cell line PeTa” value (PeTa) was “+” and the “Binding (fixation) to cell line MS-1” value (MS-1) was “+”. For the same molecule, the Cytotoxic effect [1] was “neither the antibody m906 (i.e. non coupled to MMAE), nor the ADC MF-TTZ-MMAE (ADC control) has a cytotoxic effect”, the Cytotoxic effect [2] was “neither the antibody m906 (i.e. non coupled to MMAE), nor the ADC MF-TTZ-MMAE (ADC control) has a cytotoxic effect” and the “Binding (fixation) to cell line MKL-2” value (MKL-2) was “+”.

B2: mAb-003: Deglycosylated m906, Asn297 mutated; light chain SEQ ID NO: 7, heavy chain SEQ ID NO: 17 (antibody)
heavy: EVQLVQSGAEVKKPGSSVKVSCKASGGTFTGYYMHWVRQAPGQGLEWMGWINPNSGGTNYAQKFQGRVTMTRDTSISTAYMELSRLRSDDTAVYYCARDLSSGYSGYFDYWGQGTLVTVSS[omitted - human IgG1 constant region with changes]
light: B1 light
modifications: Asn297 mutated, deglycosylated; Chaine l g re du m906
For B2, the “Binding to CD56+ cells” value [3] was “strong binding”, the “Binding to CD56− cells (CRISPR cells)” value [4] was “without any binding” and the “Killing effect on primary NK cells” value (primary NK cells; after 4 days of incubation) was “reducing drastically the ADCC killing effect”.

B3: MIO-003 (conjugate)
heavy: EVQLVQSGAEVKKPGSSVKVSCKASGGTFTGYYMHWVRQAPGQGLEWMGWINPNSGGTNYAQKFQGRVTMTRDTSISTAYMELSRLRSDDTAVYYCARDLSSGYSGYFDYWGQGTLVTVSS[omitted - human IgG1 constant region with changes]
light: B1 light
With B3 the “Bystander effect (G2/M arrest, sub-G1 increase)” value [5] was “exerted a bystander effect”, the IC50 (MKL-1 CRISPR CD56) was 637 nM and the “Killing effect on monocytes” value (monocytes) was “negligible killing effect”. For the same molecule, the mice weight variation (WaGa xenograft) was “exceeded 20%”, the “Killing effect towards neutrophils” value (neutrophils) was “around 5%” and the “Cytotoxicity on CD56− cells” value [6] was “not cytotoxic”.

“Also recorded” adds a separate entry of the source.
